Measurements as given in PubChem BioAssay AID485313 (National Center for Advancing Translational Sciences (NCATS), 2010).
“And” between values parts separate entries of the source, which are not always exact repeats. Equal values may be shown once. Hit rate of the full screen: of about 320,000 compounds, about 7,600 (2.4%) were called active. The inconclusive results got no clear call from the source; some entries with a clear call stand among them for comparison. The call rests on the fitted dose curve; in most records, active means well fitted activation curve with a large enough effect; inconclusive means small, poorly fitted or top-dose-only effect; inactive means no such curve, though single readings can be large or run the other way. No potency is given beside an inconclusive call; the fits are too rough.

Assay: qHTS Assay for NPC1 Promoter Activators; further: nearly all actives have a fitted effect of over 60% in size;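 on activation: reporter is driven by a mutant NPC1 promoter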
Settings: Huh7 NPC1 promoter luciferase reporter, 24 h; series mostly up to 9.22 µM
Procedure, shortened: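 Compounds in DMSO were transferred onto Huh7 NPC1-luciferase reporter cells pre-incubated 2 h; after 24 h at 37 °C, Amplite reagent was dispensed and luminescence recorded 10 min later.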
Potency means the concentration at half of the fitted maximal effect; tags describe the fitted curve by direction and shape.

Row | Compound | Potency
1 | CCC(=O)N1CCN(c2nc3ccccc3s2)CC1 | inconclusive [activator, partial curve]
2 | Cc1nc(-c2ccc(C(=O)Nc3ccccc3F)cc2)cs1 | active: 0.112 µM
3 | Cc1ccc(S(=O)(=O)NCC(=O)N(CC(=O)NCc2ccco2)Cc2ccc(F)cc2)cc1 | inconclusive [activator, single point]
4 | C=CCNc1nc(-c2ccc(Cl)cc2)cs1 | active: 2.82 µM
5 | Cc1ccc(OCc2csc(N)n2)cc1 | inconclusive [activator, partial curve]
6 | Cc1ccc([N+](=O)[O-])c(OCc2ncc(Cl)n2C)c1 | inconclusive [activator, single point]
7 | O=C(Nc1ccc(N2CCOCC2)cc1)c1ccc2c(c1)OCO2 | inconclusive [activator, partial curve]
8 | CCCCOC(=O)Nc1nnc(CC(=O)NCc2ccccc2)s1 | inactive
9 | O=C(/C=C/Nc1ccccc1C(=O)O)c1cccs1 | active: 1.41 µM
10 | O=C(Nc1nc2c(s1)CCCC2)c1ccc(N2C(=O)CCC2=O)cc1 | inconclusive [activator, single point]
11 | Cc1cc(NCc2ccccn2)ccc1Br | inconclusive [activator, single point]
12 | Cc1ccc(-c2cc(-c3ccccc3)no2)c(O)c1 | active: 3.16 µM
13 | Cc1cc(Cl)c(O)c(-n2nc3ccccc3n2)c1 | inconclusive [activator, partial curve]
14 | CCS(=O)(=O)c1ccc(O)c(NC(=O)Nc2ccccc2)c1 | inactive
15 | Cn1cc(/C=N\NC(=O)c2cccs2)c2ccccc21 | inconclusive [activator, partial curve]
16 | Cn1ccc(C(=O)N/N=C/c2c[nH]c3ccccc23)n1 | inconclusive [activator, partial curve]
17 | CCc1ccc(CC2S/C(=C(\C#N)C(C)=O)NC2=O)cc1 (stereo not drawn) | inactive
18 | Cc1ccc(Cn2c(C)c3cnn(CC(=O)NC4CCCC4)c(=O)c3c2C)cc1 | inconclusive [activator, partial curve]
19 | O=c1oc(Nc2ccccc2F)nc2ccccc12 | inconclusive [activator, partial curve]
20 | Cc1ccc(Nc2cc(C)nc(-c3ccccc3)n2)cc1 | inconclusive [activator, partial curve]
21 | CCSc1nnc(NC(=O)/C=C/c2ccco2)s1 | inconclusive [activator, single point]
22 | Cc1nn(C(=O)c2ccoc2C)c(N)c1-c1ccccc1 | inconclusive [activator, partial curve]
23 | CC(C)CNC(=O)c1cc(-c2ccc(Cl)c(Cl)c2)on1 | inconclusive [activator, partial curve]
24 | O=C(NCCc1ccccn1)c1ccc2nc(Cc3ccccc3F)oc2c1 | active: 2.82 µM
25 | CN1CCN(c2ccc(NC(=O)COc3ccccc3)cc2Cl)CC1 | active: 4.47 µM
26 | Fc1ccccc1NC(=S)N1CCC(c2ccccc2)C1 (stereo not drawn) | inconclusive [activator, partial curve]

Row | Compound | Potency
27 | Cc1ccc(CCC(=O)Nc2ccccc2C(=O)O)o1 | inconclusive [activator, single point]
28 | Cc1ccc(NC(=O)c2ccc3snnc3c2)cc1C | inconclusive [activator, single point]
29 | COCCNC(=O)c1ccc2c(Cl)c3c(nc2c1)CCC3 | inconclusive [activator, single point]
30 | CCOc1ccc2nc(/N=C/c3c(C)[nH]n(-c4ccc(C)cc4)c3=O)sc2c1 | inconclusive [activator, partial curve]
31 | Cc1ccnc(Nc2nc(-c3ccc(O)c(O)c3)cs2)c1 | inconclusive [activator, single point]
32 | COc1cc(O)cc2cc3c(c(O)c12)C(=O)CC(C)(O)O3 (stereo not drawn) | inconclusive [activator, partial curve]
33 | O=C1c2ccccc2C(=O)N1CCN1CCc2ccccc21 | inconclusive [activator, single point]
34 | O=C(CCC(=O)c1cccs1)OCC(=O)N1CCN(C(=O)c2ccco2)CC1 | inconclusive [activator, single point]
35 | Cc1csc(SCC(=O)Nc2sccc2C(N)=O)n1 | inconclusive [activator, partial curve]
36 | C=CCc1cccc(Cl)c1OCCCNC1CCCC1 | inactive
37 | O=S(=O)(c1ccc(F)cc1)N1CCC2(CC1)OCCO2 | inactive
38 | Cc1ccc(NC(=O)c2ccc3nsnc3c2)c(Cl)c1 | active: 0.501 µM
39 | CCOC(=O)SC1=N/C(=C\c2ccc(N(C)C)cc2)C(=O)S1 | inactive
40 | CC(=O)Nc1ccc(-c2csc(Nc3ncccn3)n2)cc1 | active: 0.562 µM
41 | Cc1cc([N+](=O)[O-])cnc1NC(C)c1ccccc1 (stereo not drawn) | inactive
42 | COC(=O)CCC(=O)N1CCCC(CO)(Cc2ccccc2)C1 (stereo not drawn) | inconclusive [activator, partial curve]
43 | CC(OC(=O)c1ccc(Cl)nc1)C(=O)Nc1ccc2c(c1)OCO2 (stereo not drawn) | inactive
44 | O=C(Nc1ncc([N+](=O)[O-])s1)c1cccs1 | active: 631 nM and active: 891 nM
45 | C/C(=N/NC(=O)c1cc(C)[nH]n1)c1ccco1 | inconclusive [activator, partial curve]
46 | O=C(OCC(=O)N1CCOCC1)c1ccccc1OCc1ccccc1 | inactive
47 | C/C(=N\NC(=O)c1ccc([N+](=O)[O-])cc1Cl)c1ccccc1 | inconclusive [activator, partial curve]
48 | N/C(=N\OC(=O)CCCc1ccccc1)c1ccccc1Cl | inactive
49 | O=C(c1ccco1)N1CCN(C(=O)c2cc(-c3ccccc3F)no2)CC1 | inconclusive [activator, single point]
50 | Nc1nc2ccc(-c3nc4ccccc4o3)cc2s1 | active: 1.12 µM
51 | N#C/C(=C\Nc1ccc2c(c1)OCCO2)c1nc2ccccc2[nH]1 | inconclusive [activator, partial curve]
52 | N#Cc1ccccc1OCC(=O)Nc1nnc(C2CC2)s1 | inconclusive [activator, single point]

Row | Compound | Potency
53 | Cc1cc(-c2nnc(CSc3nnc(NC(=O)c4ccc(C(C)(C)C)cc4)s3)o2)ccc1[N+](=O)[O-] | active: 2.51 µM
54 | Nc1nc(-c2ccc(Oc3ccccc3)cc2)cs1 | inconclusive [activator, partial curve]
55 | O=C(Nc1ccc(N2CCCC2)cc1)C(Cl)c1ccccc1 (stereo not drawn) | inactive
56 | COc1ccc(/C=N/N(C(C)=O)c2nc(-c3ccc(C)cc3)cs2)cc1 | inactive
57 | O=C(N/N=C/c1ccccc1F)NC1CCCCC1 | inconclusive [activator, partial curve]
58 | Cc1nc2oc3ccc(Cl)cc3c(=O)c2cc1C(=O)O | inconclusive [activator, single point]
59 | Cc1cccc(CSc2ccc(-c3ccco3)nn2)c1 | inconclusive [activator, single point]
60 | CC(=O)NN1C(=O)/C(=C\c2ccc(O)cc2)SC1=S | inactive
61 | CC/C(=N\NC(=O)C1CCCC1)c1ccc(Br)cc1 | inactive
62 | CCOc1ccccc1-c1ccc(C(=O)NCc2ccccc2)o1 | inconclusive [activator, single point]
63 | C/C(=N\NC(=O)c1nc(C)cc(C)n1)c1ccccc1 | active: 1.58 µM
64 | O=C(Nc1ccc2c(c1)CCC2)c1ccc(F)c(S(=O)(=O)N2CCOCC2)c1 | inactive
65 | COc1cc(/C=N/NC(=S)Nc2cccc(C(=O)O)c2)ccc1O | inconclusive [activator, partial curve]
66 | COc1ccc(CCNC(=O)c2ccc3c(c2)OCCO3)cc1 | inconclusive [activator, single point]
67 | Cc1cc(C)cc(C(=O)Nc2nc3ccccc3[nH]2)c1 | active: 2.51 µM
68 | Cc1ccc(NC(=O)C2Cc3ccccc3C(=O)O2)cc1 (stereo not drawn) | inconclusive [activator, single point]
69 | C(=N\Nc1nc2ccccc2s1)/c1ccc2c(c1)OCO2 | active: 3.98 µM
70 | COC(=O)c1ccccc1NC(=O)c1cccc(COc2ccccc2Cl)c1 | inconclusive [activator, partial curve]
71 | CC(=O)c1ccc(NC(=O)C2CCN(S(=O)(=O)c3cccs3)CC2)cc1 | inconclusive [activator, single point]
72 | O=[N+]([O-])CC(c1ccccc1)P(=O)(c1ccccc1)c1ccccc1 (stereo not drawn) | inconclusive [activator, single point]
73 | COCC(=O)NC1CC(C)(C)Cc2c1cnn2-c1ccc(F)cc1 (stereo not drawn) | inactive
74 | C=CCNC(=S)NC(=O)c1oc2ccccc2c1C | inconclusive [activator, single point]
75 | O=C(NC(=S)Nc1ccc2c(c1)OCO2)c1ccccc1 | active: 1.41 µM
76 | Cn1c(SCc2ccccc2)nnc1-c1c[nH]c2ccccc12 | inconclusive [activator, partial curve]
77 | O=C(COc1ccccc1)Nc1cccc(-c2nnc(-c3ccccc3)o2)c1 | inconclusive [activator, partial curve]
78 | Cc1ccc(NC(=O)c2nnn(-c3cccc(C(F)(F)F)c3)c2N)cc1 | inactive
